Among all 310,000 compounds or so, about 2,200 (0.71%) showed an effect of 50% or more. The effect is printed as a negative number. The list shows a part of the results.
biological target: human ether-à-go-go-related gene (hERG) potassium channel (human, UniProt Q12809); test: primary screen, population patch clamp on CHO cells stably expressing hERG
Sequence (Q12809 whole entry, looked up): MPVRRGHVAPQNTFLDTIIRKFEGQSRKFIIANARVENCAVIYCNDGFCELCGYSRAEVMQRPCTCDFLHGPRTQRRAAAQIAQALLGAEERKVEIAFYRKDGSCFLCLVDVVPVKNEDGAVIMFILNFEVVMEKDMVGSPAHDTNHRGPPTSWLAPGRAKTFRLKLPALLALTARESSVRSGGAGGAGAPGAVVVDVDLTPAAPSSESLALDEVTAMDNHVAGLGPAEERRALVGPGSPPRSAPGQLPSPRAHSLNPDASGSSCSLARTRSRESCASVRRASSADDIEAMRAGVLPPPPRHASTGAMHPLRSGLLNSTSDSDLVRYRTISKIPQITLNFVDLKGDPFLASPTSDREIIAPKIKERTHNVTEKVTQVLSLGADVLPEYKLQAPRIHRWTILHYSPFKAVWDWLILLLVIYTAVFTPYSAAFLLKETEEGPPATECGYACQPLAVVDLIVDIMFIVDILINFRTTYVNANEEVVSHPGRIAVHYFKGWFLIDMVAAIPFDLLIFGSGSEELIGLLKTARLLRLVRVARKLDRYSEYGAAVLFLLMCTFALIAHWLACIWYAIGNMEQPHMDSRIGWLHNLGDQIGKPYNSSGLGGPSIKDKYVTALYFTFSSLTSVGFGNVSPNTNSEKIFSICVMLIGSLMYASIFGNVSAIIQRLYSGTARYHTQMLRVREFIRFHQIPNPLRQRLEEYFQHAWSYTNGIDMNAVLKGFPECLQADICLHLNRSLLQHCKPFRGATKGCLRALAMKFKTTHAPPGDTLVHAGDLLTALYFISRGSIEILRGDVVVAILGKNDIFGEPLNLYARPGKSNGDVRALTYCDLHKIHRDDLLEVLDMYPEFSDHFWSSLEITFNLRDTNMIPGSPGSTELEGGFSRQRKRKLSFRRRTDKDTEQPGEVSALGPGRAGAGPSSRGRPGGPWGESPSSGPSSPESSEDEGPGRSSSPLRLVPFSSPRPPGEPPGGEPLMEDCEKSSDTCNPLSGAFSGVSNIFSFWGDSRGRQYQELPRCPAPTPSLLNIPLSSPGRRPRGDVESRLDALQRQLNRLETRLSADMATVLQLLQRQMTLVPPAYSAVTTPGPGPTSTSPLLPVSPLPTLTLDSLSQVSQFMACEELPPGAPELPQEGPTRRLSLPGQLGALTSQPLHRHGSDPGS

| Compound | hERG current change (%, negative = inhibition) at 1uM [%] |
| --- | --- |
| CC1CCN(c2ccc(-c3ccc(NC(=O)C(F)(F)F)cc3)nn2)CC1 | 10.3 |
| Cc1cc(NC(=O)CSc2nc(-c3ccco3)cc(C(F)(F)F)n2)no1 | 23.5 |
| Fc1ccc(-c2nc3cnccn3c2NC2CCCC2)cc1 | 13.5 |
| O=C(NCCc1nnc2ccc(SCC(=O)N3CCOCC3)nn12)c1ccccc1 | 13.7 |
| CC(=O)OCN(C#N)c1nc(N(C)C)nc(N(C)C)n1 | 13.7 |
| CCOC(=O)C1CCN(C(=O)Cn2cnc3sc(C)c(S(=O)(=O)N4CCCCC4)c3c2=O)CC1 | 5.45 |
| COC(=O)CSc1nc(C)cc(C(F)(F)F)c1C#N | 6.47 |
| NC(=O)C1CCCN(S(=O)(=O)c2ccc3ccccc3c2)C1 (stereo not drawn) | -7.42 |
| O=[N+]([O-])c1ccc(P(=O)(Cc2ccccc2)c2ccccc2O)cc1 (stereo not drawn) | 18.1 |
| NC(N)=N/N=C/c1ccc(OS(=O)(=O)c2ccccc2)cc1 | -10.7 |
| Cl.c1ccc(Cc2ccc(OCCN3CCOCC3)cc2)cc1 | 14 |
| N#CCCN(C(=O)COc1ccc(F)cc1Br)c1ccccc1F | 6.58 |
| CCCCc1nc(C(N)=O)c2[nH]c(=O)n(-c3ccccc3F)c2n1 | 4.7 |
| Cc1ccc(S(=O)(=O)N2c3ccccc3NC(=O)CC2C)cc1 (stereo not drawn) | 15.2 |
| COc1ccc(Cl)cc1NC(=O)CN(C)C(=O)c1cc(=O)c2ccccc2o1 | -0.822 |
| CSc1nnc(-c2ccncc2)n1/N=C/c1cn(-c2ccccc2)nc1-c1ccc(Cl)cc1 | 13.1 |
| NC(=O)c1ccc(-n2nnnc2SCC(=O)Nc2ccccc2-c2ccccc2)cc1 | -5.78 |
| Cc1ccc(CO/N=C/C2=C(Cl)c3ccccc3CC2)cc1 | 14.5 |
| O=C(c1ccc2c(c1)OCO2)N1CCC2(CC1)Oc1ccc(F)cc1C(=O)C21CC(c2ccccc2)=NO1 (stereo not drawn) | 6.22 |
| CC(=O)NS(=O)(=O)c1ccc(N2C(=O)c3ccccc3C2=O)cc1 | 6.43 |
| COc1cc(NC(=O)Cn2c(C)cc3ccccc3c2=O)cc(OC)c1OC | 12.5 |
| Cc1ccc(C(=O)NCc2ccco2)cc1Br | -9.25 |
| OCCC1CN(Cc2ccccc2-c2ccco2)CCN1Cc1ccccc1 (stereo not drawn) | 2.84 |

| Compound | hERG current change (%, negative = inhibition) at 1uM [%] |
| --- | --- |
| NC(=O)Cn1c(=O)n(CC(=O)N2CCCCC2)c(=O)c2sccc21 | 12.9 |
| CCc1cc(-c2n[nH]c(=S)n2C(C)c2ccccc2)cs1 (stereo not drawn) | -5.68 |
| CCCC(c1nnnn1C(C)(C)C)N1CCN(C(=O)c2ccco2)CC1.Cl (stereo not drawn) | 8.97 |
| COc1ccccc1NC(=O)Cc1noc(CN(C)Cc2cccs2)n1 | 2.1 |
| CCOc1cc(NC(=O)C(C)C)c(OCC)cc1NC(=O)Nc1ccccc1 | 17.7 |
| CCN(CC)c1nc(Oc2ccc(=O)[nH]n2)nc(N2CCOCC2)n1 | 13.3 |
| CCN/N=C(\Cc1nc2ccccc2[nH]1)c1ccccc1 | 13 |
| O=C(CN1CCN(Cc2ccccc2F)C1=O)NCCN1CCOCC1 | 12.7 |
| COC(=O)c1ccc(COc2ccc(/C=N/NC(N)=S)cc2)o1 | 3.68 |
| O=C(c1ccc(N2C(=O)c3ccccc3C2=O)cc1)N1CCCCC1 | 8.83 |
| CC(C(=O)NCC1CCCCC1)N(C)Cc1ccc(Cl)cc1 (stereo not drawn) | 5.42 |
| CCc1c(C)nc2cc(-c3cc(OC)cc(OC)c3)nn2c1N1CCN(CCN2CCOCC2)CC1 | -0.755 |
| Cc1cc(NS(=O)(=O)c2ccc(NC(=S)NC(=O)/C=C/c3ccccc3)cc2)no1 | 4.78 |
| CCCN(CCC)c1nc(N)c(C#N)c(CC#N)c1C#N | -0.637 |
| Cc1ccc(S(=O)(=O)N(C)C)cc1NC(=O)CCNC(=O)c1ccco1 | 14.2 |
| COc1ccc(NC(=O)Cc2ccc(Cl)c(Cl)c2)cn1 | 18.9 |
| Cc1cccc(CS(=O)(=O)Cc2ccc(C(=O)NCC3CCCO3)o2)c1 (stereo not drawn) | -3 |
| CCOC(=O)C(=O)Nc1cc(C(=O)OC)cc(C(=O)OC)c1 | 8.83 |
| C/C(NCc1cccnc1)=C(\C#N)C(=O)NCc1ccccc1 | -2.85 |
| Cc1cc(=O)n(C)c(=O)n1CCCCCN1CCCC1.O=C(O)C(=O)O | 6.69 |
| Nc1ccccc1Nc1cccc(C(F)(F)F)c1 | 14.1 |
| NC(=O)C1CCN(C(=O)Nc2csc3ccccc23)CC1 | 8.81 |
| O=C(O)c1ccc(S(=O)(=O)Nc2cccc(CP(=O)(c3ccccc3)c3ccccc3)c2)cc1 | 16 |

| Compound | hERG current change (%, negative = inhibition) at 1uM [%] |
| --- | --- |
| O=C(COC(=O)c1ccc([N+](=O)[O-])cc1)Nc1cccnc1Cl | 4.99 |
| Cn1ccsc1=NC(=O)c1cc(S(=O)(=O)N2CCOCC2)ccc1Cl | 11 |
| CC(=O)Nc1sc2c(c1C(c1cccc(F)c1)N1CCN(CCO)CC1)CCCC2 (stereo not drawn) | -6.15 |
| CSc1nc(N)nc(SCC(=O)c2ccc(C)cc2)c1C#N | 2.48 |
| CN1CCN(C(=O)c2ccc(F)c(F)c2)CC1 | 7.94 |
| CN(CCN(C)C(C)(C)C)C(=O)C(c1ccccc1)c1ccccc1 | 15.4 |
| COc1ccc(OC)c(C(=O)COC(=O)c2cc(C)oc2C)c1 | 15.4 |
| CC1CCN(c2ccccc2NC(=S)NC(=O)c2cccs2)CC1 | -3.67 |
| CC(CCN1CCOCC1)c1ccccc1 (stereo not drawn) | 14.7 |
| Cc1cc(NC(=O)c2ccccc2Cl)n(C(C)(C)C)n1 | 18.4 |
| CC(C)(C)c1ccc(OCc2cnc(Cl)s2)cc1 | 21.2 |
| CC(C)c1ccccc1NC1=NCCCS1 | 9.8 |
| Oc1cccc(/C=N/N2CCN(c3ccccn3)CC2)c1 | 8.81 |
| Cn1c(=O)c2c(nc(Br)n2CCc2ccccc2)n(C)c1=O | 10.8 |
| CCOC(=O)COc1cccc(C2NC(=O)c3ccccc3O2)c1 (stereo not drawn) | 8.13 |
| N#C/C(=C\c1ccccc1Br)C(=O)NC1CC1 | -1.11 |
| COc1ccc(C(=O)N2CCN=C2SC)cc1OC | 1.76 |
| Cc1cc(=O)[nH]c2c(C)cc(S(=O)(=O)NCc3ccccc3)cc12 | 14.8 |
| COc1cccc(CN2CCNC(=O)C2CC(=O)NCCN2CCCCC2=O)c1 (stereo not drawn) | 11.5 |
| CN(C)C=O.Cc1cc(C)n2nc(C(=O)OCC(=O)c3c[nH]c4ccccc34)nc2n1 | 5.74 |
| CC(C)(C)n1nnnc1C(c1ccc(F)cc1)N1CCN(Cc2ccc3c(c2)OCO3)CC1 (stereo not drawn) | 3.33 |
| C/C(=N\NC(=O)C1CC1)c1cccs1 | 11 |
| N#C/C(=C\c1cn[nH]c1-c1ccc(Cl)cc1)C(=O)NCc1ccccc1 | 6.78 |

| Compound | hERG current change (%, negative = inhibition) at 1uM [%] |
| --- | --- |
| CC(C)(C)c1nn(-c2ccccc2)c2[nH]c(=O)c(CNCc3ccc4c(c3)OCO4)cc12 | 18.4 |
| Cc1ccc(C(=O)Nc2nc(-c3cc(Cl)sc3Cl)cs2)cc1 | 0.62 |
| CCC1CN(C(=O)N2CCC(C(=O)NCc3ccco3)CC2)c2ccccc2O1 (stereo not drawn) | 8.76 |
| CCCN(CCC)C(=O)CSc1nc2ccccc2c(=O)n1C1CCCC1 | 4.8 |
| Cc1c(CC(=O)N2C[C@H]3C[C@@H](C2)c2cccc(=O)n2C3)c(=O)oc2cc(O)c(Cl)cc12 | 7.7 |
| COc1cc(C)ccc1OCCCCN1CC(C)OC(C)C1.O=C(O)C(=O)O (stereo not drawn) | -2.74 |
| C[N+]1(CC2COC3(CCCCC3)O2)CCCCC1.[I-] (stereo not drawn) | 12.3 |
| COc1ccc(N(C)C(=O)CN(C)S(=O)(=O)c2ccc3c(c2)c(=O)n(C)c(=O)n3C)c(OC)c1 | 5.95 |
| COc1cccc(OC)c1OCCOCCn1cnc2ccccc2c1=O | 12.5 |
| CC(C)(C)c1nc2c(s1)CCc1onc(-c3ccc(Br)cc3)c1-2 | 13.6 |
| O=C(NCc1ccco1)c1cccc(-c2nnc(-c3ccccc3)o2)c1 | -5.63 |
| O=c1[nH]c2cc3c(cc2cc1CN(CCCO)Cc1nnnn1Cc1ccc(F)cc1)OCO3 | 11.3 |
| COc1ccc(OCC(=O)Nc2ncc3c(n2)CC(C)(C)CC3=O)cc1 | 7.43 |
| Cc1ccc(C(=O)N2CCN(C(=O)CN3CCOCC3)C2)cc1 | 0.778 |
| CSCC[C@H](N)C(=O)NCC1CCC(C(=O)Nc2ccc3c(c2)OCO3)CC1 (stereo partly drawn) | 9.9 |
| COc1ccc(CSc2nnnn2-c2ccc(C(N)=O)cc2)cc1[N+](=O)[O-] | 15.7 |
| O=C(COC(=O)c1ccco1)NC1CCCC1 | 18.1 |
| O=C(Nc1nc2ccccc2s1)c1cnccn1 | 10.7 |
| COC(=O)c1ccc(NS(=O)(=O)NC(=O)c2c[nH]c3ccccc23)cc1 | 22.2 |
| CCOCCCn1c(C)nc2c(c1=O)c1nc3ccccc3nc1n2CCC1=CCCCC1 | 2.83 |
| CCc1ccc(NC(=O)CSc2nc3[nH]ncc3c(=O)[nH]2)cc1 | 13.9 |

From article PMC4336329 (PLoS ONE, 2015)
